Measurements as given in PubChem BioAssay AID1347165 (National Center for Advancing Translational Sciences (NCATS), 2019).
Among all 220,000 compounds or so, about 5,700 (2.6%) were called active. Inconclusive results, whose numbers are uncertain, are shown with a selection of clear calls. Calls follow the shape of the dose curve; as a rule, active = well fitted inhibition curve with a large enough effect; inconclusive = small, poorly fitted or top-dose-only effect; inactive = no such curve, though single readings can be large or run the other way. Potencies of inconclusive entries are doubtful fits and often do not repeat.

These compounds were tested against Lysine-specific demethylase 5B (Homo sapiens) (UniProt Q9UGL1) (assay: Primary screen for KDM5B Histone Demethylases FDH-coupled qHTS). Details: FDH-coupled NADH fluorescence (FDH is formaldehyde dehydrogenase); activity change, negative = inhibition: at 57.7 µM (top of the series) unless noted.
UniProt Q9UGL1, sequence (Q9UGL1 whole entry, looked up): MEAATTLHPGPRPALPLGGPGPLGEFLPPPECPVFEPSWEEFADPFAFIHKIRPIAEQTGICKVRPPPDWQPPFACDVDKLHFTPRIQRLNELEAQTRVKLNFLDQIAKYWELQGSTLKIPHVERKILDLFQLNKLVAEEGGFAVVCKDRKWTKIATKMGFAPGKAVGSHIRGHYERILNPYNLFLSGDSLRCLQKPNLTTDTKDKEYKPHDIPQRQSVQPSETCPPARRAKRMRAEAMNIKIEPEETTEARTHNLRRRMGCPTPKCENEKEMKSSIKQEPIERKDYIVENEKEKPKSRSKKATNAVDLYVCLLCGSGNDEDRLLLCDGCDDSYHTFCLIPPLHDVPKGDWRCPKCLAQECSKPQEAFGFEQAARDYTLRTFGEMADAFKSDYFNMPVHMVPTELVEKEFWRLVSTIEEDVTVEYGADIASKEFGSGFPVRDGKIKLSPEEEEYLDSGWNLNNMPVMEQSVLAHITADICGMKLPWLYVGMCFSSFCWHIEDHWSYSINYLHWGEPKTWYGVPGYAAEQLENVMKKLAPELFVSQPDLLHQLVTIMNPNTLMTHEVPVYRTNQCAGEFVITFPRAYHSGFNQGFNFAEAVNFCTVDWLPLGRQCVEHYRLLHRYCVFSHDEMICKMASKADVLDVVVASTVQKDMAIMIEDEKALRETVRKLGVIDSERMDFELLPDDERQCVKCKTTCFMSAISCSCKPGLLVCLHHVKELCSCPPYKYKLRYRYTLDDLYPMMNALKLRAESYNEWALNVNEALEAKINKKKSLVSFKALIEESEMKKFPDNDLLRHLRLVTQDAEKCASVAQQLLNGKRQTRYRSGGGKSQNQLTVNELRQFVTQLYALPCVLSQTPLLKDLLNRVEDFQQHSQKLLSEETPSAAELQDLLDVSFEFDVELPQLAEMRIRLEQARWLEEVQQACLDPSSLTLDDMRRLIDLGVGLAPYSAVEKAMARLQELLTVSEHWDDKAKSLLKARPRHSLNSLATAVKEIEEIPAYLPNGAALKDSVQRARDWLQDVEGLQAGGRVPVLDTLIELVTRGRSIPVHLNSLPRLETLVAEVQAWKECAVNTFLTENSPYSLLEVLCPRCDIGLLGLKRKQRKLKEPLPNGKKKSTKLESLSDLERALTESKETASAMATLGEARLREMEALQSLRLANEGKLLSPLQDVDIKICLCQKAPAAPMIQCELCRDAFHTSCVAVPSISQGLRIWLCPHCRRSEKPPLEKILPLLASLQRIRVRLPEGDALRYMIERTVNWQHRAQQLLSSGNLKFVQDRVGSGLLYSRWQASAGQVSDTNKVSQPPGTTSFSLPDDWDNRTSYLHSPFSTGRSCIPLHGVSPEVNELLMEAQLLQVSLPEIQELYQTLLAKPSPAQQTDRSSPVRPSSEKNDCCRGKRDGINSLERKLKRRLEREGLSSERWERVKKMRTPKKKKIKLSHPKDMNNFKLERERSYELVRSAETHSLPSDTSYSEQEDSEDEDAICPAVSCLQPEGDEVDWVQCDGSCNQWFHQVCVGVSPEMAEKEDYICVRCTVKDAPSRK
How it was run: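 Measured: NADH fluorescence change, 30 min, RT. System: KDM5BΔAP 200 nM final, H3K4me3 peptide, α-KG, Fe(II), ascorbate, NAD⁺ plus FDH, pH 7.5 HEPES. Compounds: titrated, 10 min pre-incubation with enzyme.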
Also: nearly all actives have a fitted effect of over 70% in size.
For activity change, negative = inhibition in this document: 0% is about no effect.
Potency is read from the fitted curve at half-maximal effect; tags tell the direction and shape of the fitted curve.

SMILES	activity change, negative = inhibition	Potency
O=[S+]([O-])(c1ccc(Br)cc1)c1nnn2c1nc(NCc1ccncc1)c1ccccc12	inactive: 14.2% [at 115 µM]	–
CCCN1C(=O)C(CC(=O)NC2CCCC2)Sc2ncccc21 (stereo not drawn)	–	inconclusive: 31.6 µM [inhibitor, single point]
COc1ccc(C2Cn3nnc(-c4nc(-c5ccccc5)no4)c3CO2)cc1 (stereo not drawn)	inactive: 8.18%	–
CCc1cc(=O)oc2cc(OCC(=O)NC3CC(C)(C)NC(C)(C)C3)ccc12	–	inconclusive: 25.1 µM [inhibitor, partial curve, poor fit]
Cc1noc(C)c1-c1cc2c(cc(-c3ccccc3)n2C)c(-c2cccnc2)n1	inactive: -6280% [at 86.2 µM]	–
N#Cc1c(-c2ccccc2)cc(-c2ccccc2)nc1SCC(O)CS(=O)(=O)Cc1ccc(Cl)cc1 (stereo not drawn)	–	inconclusive: 15.8 µM [inhibitor, partial curve, poor fit]
CC(C)C(=O)N1CC(Oc2ccccc2-c2nc(C3CC3)no2)C1	–	inconclusive: 22.4 µM [inhibitor, single point]
COc1cccc(OC)c1C(=O)Nc1ccc2oc(-c3ccc(F)cc3)cc(=O)c2c1	–	inconclusive: 17.8 µM [inhibitor, partial curve, poor fit]
O=C(NCc1ccc(-c2nc3ccccc3s2)o1)c1ccc(F)cc1F	–	inconclusive: 25.1 µM [inhibitor, partial curve, poor fit]
COCCN1CCCCCC(O)c2cc(C(=O)NC3CCC3)ccc21 (stereo not drawn)	–	active: 31.6 µM
Cc1noc(C(C)N2CCN(c3oc(-c4ccco4)nc3C#N)CC2)n1 (stereo not drawn)	–	inconclusive: 28.2 µM [inhibitor, partial curve, poor fit]
CCc1ccc2c(CN3CCCC3c3ccc(OC)cc3)cc(=O)oc2c1 (stereo not drawn)	inactive: -15.8%	–
CCOc1ccc(CCNC(=O)C2CCN(c3ncnc4c3nc3n4CCCCC3)CC2)cc1	inconclusive: -37.4% [inhibitor]	–
CCC(=O)Oc1ccc2c(=O)c(-c3ccc(Cl)cc3)coc2c1	inactive: 14.4%	–
N#Cc1cccc(-c2cn3c(n2)N(C(=O)c2ccccn2)CCC3)c1	–	active: 17.8 µM
COCCN1CCCCCC(O)c2cc(C(=O)N3CCN(c4ccccc4OC)CC3)ccc21 (stereo not drawn)	inactive: -9.81%	–
NC(=O)c1noc(CN2CCn3nc(CCC(=O)N4CCOCC4)cc3C2)n1	–	inconclusive: 20 µM [inhibitor, single point]
COc1ccc(NC(=O)COc2ccccc2Cl)c2cccnc12	–	inconclusive: 39.8 µM [inhibitor, single point]
CN(C)c1oc(-c2ccco2)nc1S(=O)(=O)c1ccc(F)cc1	–	inconclusive: 39.8 µM [inhibitor, single point]
COc1ccc2c(c1)cc(C(=O)NCc1ccccc1)n2C	–	inconclusive: 2 µM [inhibitor, full curve, poor fit]
CCNc1ncc(C(=O)N[C@H](C2CCNCC2)C2CC(O)C2)cn1 (stereo partly drawn)	–	active: 28.2 µM
Cc1cccc(N2C(=O)C(O)=C(C(=O)c3cccs3)C2c2cccc(Oc3ccccc3)c2)n1 (stereo not drawn)	–	inconclusive: 31.6 µM [inhibitor, partial curve, poor fit]

SMILES	activity change, negative = inhibition	Potency
O=C(Nc1ccccc1F)c1nc(S(=O)(=O)Cc2ccccc2F)ncc1Cl	–	inconclusive: 15.8 µM [inhibitor, partial curve, poor fit]
Cc1ccc(S(=O)(=O)N2CCOCC2)cc1NC(=O)CSc1nc(C)c(C)n1C1CCCC1	inactive: 5.61%	–
CCN(C(=O)c1noc2c1COc1ccc(C)cc1-2)c1cccc(C)c1	–	inconclusive: 1.58 µM [inhibitor, partial curve, poor fit]
CC(=O)Nc1ccc(SC(C)C(=O)c2ccc3c(c2)CCC3)cc1 (stereo not drawn)	inactive: -10.5%	–
COCC1(CNS(=O)(=O)c2ccc(Cl)cc2)C[C@@H](O)[C@@H](O)C1 (stereo partly drawn)	inactive: -19.4% [at 86.2 µM]	–
Clc1cccc(-n2ncc3c(NC4CCCCC4)ncnc32)c1	–	inconclusive: 25.1 µM [inhibitor, single point]
COc1ccc(C2=NN(C(=O)CN3CCc4ccccc4C3)C(c3ccco3)C2)cc1 (stereo not drawn)	–	inconclusive: 39.8 µM [inhibitor, single point]
COc1ccc(NC(=O)N2CCCC(c3nc(C4CCOCC4)no3)C2)cc1 (stereo not drawn)	inactive: -11.9%	–
CCCCn1c(=O)n(CC(O)COc2ccc(C(C)(C)C)cc2)c(=O)c2c1ncn2CCOC (stereo not drawn)	inactive: 3.73%	–
CCN(CC)C(=O)[C@@H]1C[C@H](N)CN1C(=O)c1cc2ccccc2n(C)c1=O	–	active: 31.6 µM
COc1ccccc1CNC(=O)c1ccccc1NC(=O)c1nsc2ccccc12	–	inconclusive: 39.8 µM [inhibitor, single point]
CC(NC(=O)CSc1nc(-c2cccs2)nc2ccccc12)c1ccco1 (stereo not drawn)	–	inconclusive: 17.8 µM [inhibitor, single point]
CC1(C)Cc2c(sc3c2c(=O)n(CCCO)c(=O)n3CC(=O)c2ccccc2)CO1	inactive: 1.66%	–
CC(C)C(=O)N1CCCC(Cc2nc(C3CCOCC3)no2)C1 (stereo not drawn)	–	inconclusive: 25.1 µM [inhibitor, single point]
CCN(CC)c1nn2c(=O)c(C(=O)NCc3ccc(OC)cc3OC)cnc2s1	–	inconclusive: 35.5 µM [inhibitor, partial curve, poor fit]
Clc1ccccc1N1CCN(c2ncnc3c2c(-c2ccccc2)cn3-c2ccccc2)CC1	–	inconclusive: 15.8 µM [inhibitor, partial curve, poor fit]
N=c1nc(N)c(N)c(N)n1O	–	inconclusive: 15.8 µM [inhibitor, partial curve, poor fit]
O=C(N[C@@H]1CN(Cc2cccnc2)C[C@H]1CO)c1cccnc1	inactive: -2.06%	–
CCCn1cnnc1CNC1CCC2(CCNCC2)CC1	–	inconclusive: 22.4 µM [inhibitor, partial curve, poor fit]
Cc1ccc(F)cc1-c1ccc(COc2ccc3c(cnn3CCC(=O)O)c2)cc1	–	inconclusive: 56.2 µM [inhibitor, single point]
CCC(C)c1ccc(OCC(=O)Nc2cccc(-c3nc4ncccc4o3)c2)cc1 (stereo not drawn)	–	inconclusive: 35.5 µM [inhibitor, partial curve, poor fit]
